Among the data in paper PMC9106359 are binding values, retold here.

Sequences of proteins named here, by UniProt entry; tags and fusion partners are left off.
UniProt P70398: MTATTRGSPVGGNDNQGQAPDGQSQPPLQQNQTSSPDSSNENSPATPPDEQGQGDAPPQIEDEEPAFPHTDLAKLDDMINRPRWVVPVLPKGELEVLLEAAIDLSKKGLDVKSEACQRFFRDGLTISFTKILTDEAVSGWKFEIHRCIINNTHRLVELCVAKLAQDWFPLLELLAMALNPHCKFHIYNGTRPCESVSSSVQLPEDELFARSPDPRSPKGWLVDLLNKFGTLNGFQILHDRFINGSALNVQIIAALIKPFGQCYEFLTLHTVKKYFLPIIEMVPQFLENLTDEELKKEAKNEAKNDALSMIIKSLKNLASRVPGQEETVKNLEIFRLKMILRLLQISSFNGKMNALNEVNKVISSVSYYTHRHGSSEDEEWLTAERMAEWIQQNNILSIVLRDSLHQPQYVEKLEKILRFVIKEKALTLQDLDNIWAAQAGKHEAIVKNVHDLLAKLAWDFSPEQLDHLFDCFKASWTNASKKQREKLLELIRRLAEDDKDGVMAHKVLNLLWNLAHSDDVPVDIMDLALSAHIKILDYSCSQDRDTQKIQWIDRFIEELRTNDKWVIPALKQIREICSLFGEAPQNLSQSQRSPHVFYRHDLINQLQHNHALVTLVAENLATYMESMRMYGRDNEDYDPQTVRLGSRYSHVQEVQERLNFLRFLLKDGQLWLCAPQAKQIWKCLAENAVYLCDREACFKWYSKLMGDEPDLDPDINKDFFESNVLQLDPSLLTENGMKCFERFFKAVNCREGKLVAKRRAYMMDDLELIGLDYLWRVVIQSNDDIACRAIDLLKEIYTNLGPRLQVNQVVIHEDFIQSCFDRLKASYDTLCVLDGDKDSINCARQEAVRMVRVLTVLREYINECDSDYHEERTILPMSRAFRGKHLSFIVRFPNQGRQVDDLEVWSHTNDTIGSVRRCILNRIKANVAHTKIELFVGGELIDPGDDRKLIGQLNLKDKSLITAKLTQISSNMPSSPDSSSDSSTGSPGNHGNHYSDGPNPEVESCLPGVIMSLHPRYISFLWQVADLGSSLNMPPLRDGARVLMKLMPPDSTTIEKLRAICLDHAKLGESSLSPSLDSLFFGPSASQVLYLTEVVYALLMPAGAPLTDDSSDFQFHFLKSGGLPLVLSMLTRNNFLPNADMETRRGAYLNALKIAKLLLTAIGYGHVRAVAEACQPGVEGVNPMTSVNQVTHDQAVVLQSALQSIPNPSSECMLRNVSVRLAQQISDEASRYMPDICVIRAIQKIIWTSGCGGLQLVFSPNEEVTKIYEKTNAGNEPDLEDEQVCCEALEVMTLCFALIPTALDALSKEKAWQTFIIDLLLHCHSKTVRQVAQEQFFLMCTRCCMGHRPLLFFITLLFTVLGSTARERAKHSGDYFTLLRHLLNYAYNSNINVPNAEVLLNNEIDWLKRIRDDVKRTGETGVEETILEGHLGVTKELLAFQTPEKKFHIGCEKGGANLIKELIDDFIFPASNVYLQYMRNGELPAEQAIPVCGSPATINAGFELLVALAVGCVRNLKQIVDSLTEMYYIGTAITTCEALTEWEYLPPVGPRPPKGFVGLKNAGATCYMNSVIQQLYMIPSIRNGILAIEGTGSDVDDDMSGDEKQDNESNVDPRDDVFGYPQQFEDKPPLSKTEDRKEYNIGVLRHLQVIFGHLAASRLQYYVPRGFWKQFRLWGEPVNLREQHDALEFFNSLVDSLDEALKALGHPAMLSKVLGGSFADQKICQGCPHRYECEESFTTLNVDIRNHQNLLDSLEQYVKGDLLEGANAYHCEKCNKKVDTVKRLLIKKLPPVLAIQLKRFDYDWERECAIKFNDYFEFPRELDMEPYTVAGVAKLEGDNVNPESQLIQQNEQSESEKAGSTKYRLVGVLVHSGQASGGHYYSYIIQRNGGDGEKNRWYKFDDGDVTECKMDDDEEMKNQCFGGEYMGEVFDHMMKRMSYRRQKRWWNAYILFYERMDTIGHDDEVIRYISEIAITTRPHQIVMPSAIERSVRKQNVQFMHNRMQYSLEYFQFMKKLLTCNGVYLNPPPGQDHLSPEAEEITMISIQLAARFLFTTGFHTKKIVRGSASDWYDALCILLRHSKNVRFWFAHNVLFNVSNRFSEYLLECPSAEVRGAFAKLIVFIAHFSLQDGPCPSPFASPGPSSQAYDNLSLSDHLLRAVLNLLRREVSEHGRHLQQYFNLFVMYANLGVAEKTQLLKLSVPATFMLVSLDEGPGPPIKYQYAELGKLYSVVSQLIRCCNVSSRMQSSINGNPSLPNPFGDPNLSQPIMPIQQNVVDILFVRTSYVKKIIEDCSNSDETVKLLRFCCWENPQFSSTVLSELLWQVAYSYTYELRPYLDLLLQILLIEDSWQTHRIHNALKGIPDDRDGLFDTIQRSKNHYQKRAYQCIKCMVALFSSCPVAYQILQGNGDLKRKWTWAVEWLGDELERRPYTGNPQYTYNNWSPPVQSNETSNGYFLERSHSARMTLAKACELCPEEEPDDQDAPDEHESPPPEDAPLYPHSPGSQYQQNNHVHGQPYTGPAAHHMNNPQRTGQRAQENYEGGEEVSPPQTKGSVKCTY
UniProt Q93008: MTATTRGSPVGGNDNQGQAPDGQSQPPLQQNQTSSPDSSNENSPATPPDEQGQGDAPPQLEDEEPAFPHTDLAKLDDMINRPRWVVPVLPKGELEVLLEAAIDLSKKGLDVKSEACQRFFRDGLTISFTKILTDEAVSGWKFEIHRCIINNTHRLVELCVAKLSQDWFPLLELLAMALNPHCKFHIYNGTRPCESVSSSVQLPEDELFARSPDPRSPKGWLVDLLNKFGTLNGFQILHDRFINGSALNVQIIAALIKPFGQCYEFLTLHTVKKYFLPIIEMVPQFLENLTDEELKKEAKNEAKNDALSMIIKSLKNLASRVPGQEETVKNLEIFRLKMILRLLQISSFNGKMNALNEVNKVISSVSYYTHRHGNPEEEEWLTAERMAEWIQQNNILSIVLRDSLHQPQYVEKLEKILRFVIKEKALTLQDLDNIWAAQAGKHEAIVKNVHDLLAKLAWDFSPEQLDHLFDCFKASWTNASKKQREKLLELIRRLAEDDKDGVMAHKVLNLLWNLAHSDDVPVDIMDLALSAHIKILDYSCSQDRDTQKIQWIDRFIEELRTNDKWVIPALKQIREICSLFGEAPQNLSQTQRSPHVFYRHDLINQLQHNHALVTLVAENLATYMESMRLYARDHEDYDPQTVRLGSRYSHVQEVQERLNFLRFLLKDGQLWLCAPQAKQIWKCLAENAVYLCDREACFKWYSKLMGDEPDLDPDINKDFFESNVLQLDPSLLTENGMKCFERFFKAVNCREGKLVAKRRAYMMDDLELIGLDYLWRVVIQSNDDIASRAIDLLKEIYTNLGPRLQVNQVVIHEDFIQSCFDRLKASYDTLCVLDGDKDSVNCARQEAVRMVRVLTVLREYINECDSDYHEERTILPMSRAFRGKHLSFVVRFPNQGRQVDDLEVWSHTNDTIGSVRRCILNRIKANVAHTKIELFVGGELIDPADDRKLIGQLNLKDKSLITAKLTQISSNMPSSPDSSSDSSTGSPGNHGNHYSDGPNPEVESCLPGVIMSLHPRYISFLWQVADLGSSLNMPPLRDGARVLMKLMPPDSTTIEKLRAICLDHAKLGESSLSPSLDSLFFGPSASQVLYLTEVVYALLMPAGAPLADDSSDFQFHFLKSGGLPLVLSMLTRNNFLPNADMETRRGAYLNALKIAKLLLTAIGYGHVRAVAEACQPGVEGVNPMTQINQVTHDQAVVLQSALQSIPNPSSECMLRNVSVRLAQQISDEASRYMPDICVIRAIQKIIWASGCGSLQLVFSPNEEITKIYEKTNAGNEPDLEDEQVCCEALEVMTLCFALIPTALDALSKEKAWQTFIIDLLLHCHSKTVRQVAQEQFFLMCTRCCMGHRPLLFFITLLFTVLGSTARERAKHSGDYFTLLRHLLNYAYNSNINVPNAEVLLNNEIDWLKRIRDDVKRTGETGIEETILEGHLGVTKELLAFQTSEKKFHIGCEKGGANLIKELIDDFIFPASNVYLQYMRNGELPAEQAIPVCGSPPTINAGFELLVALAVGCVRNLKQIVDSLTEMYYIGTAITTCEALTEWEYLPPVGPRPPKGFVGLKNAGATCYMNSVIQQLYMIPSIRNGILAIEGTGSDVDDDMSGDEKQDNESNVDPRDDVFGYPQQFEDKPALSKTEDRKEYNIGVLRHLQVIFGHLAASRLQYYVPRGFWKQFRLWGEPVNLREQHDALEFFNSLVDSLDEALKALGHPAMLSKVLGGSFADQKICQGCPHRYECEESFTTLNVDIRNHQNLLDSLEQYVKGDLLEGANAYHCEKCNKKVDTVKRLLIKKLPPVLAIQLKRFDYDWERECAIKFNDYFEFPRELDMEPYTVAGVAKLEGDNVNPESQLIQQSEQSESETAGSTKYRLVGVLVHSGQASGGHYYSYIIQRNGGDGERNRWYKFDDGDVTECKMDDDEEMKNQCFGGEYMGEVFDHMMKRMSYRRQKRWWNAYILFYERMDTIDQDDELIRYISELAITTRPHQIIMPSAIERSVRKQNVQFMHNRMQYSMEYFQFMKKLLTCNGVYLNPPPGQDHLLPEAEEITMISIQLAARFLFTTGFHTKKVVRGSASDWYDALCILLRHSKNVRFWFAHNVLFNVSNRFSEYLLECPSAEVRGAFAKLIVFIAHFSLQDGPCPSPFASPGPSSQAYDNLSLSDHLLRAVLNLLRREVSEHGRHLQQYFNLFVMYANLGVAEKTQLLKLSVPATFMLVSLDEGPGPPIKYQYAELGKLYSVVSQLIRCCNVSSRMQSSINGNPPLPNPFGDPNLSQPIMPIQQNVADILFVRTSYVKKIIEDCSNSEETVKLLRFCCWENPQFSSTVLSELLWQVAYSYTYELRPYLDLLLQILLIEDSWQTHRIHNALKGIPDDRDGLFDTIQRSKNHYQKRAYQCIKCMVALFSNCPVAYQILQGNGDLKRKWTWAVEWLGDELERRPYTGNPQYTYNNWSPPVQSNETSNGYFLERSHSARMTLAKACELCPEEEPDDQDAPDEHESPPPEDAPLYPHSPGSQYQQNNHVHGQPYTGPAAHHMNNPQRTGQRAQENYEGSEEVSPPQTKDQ
UniProt Q9EQ09: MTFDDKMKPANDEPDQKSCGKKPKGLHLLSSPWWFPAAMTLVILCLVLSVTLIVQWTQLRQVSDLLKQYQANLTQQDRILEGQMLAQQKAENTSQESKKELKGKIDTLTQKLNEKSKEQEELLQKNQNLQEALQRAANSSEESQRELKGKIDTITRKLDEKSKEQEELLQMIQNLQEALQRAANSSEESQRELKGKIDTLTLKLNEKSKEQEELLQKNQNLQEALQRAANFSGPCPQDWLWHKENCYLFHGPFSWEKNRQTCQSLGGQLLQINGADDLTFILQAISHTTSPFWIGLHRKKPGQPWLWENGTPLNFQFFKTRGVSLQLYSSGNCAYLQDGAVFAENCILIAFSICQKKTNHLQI
UniProt Q08857: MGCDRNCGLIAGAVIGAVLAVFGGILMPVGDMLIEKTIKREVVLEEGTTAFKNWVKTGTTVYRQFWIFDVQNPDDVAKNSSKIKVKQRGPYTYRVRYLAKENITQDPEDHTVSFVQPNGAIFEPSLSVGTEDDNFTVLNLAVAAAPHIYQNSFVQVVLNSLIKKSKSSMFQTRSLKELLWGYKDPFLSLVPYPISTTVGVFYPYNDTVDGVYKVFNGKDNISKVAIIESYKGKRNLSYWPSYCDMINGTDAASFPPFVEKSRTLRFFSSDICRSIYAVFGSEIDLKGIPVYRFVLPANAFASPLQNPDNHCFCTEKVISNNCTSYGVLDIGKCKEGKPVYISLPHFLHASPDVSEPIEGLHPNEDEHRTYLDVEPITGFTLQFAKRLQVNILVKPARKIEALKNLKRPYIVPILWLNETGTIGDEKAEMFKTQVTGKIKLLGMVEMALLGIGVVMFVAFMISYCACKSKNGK

No constants are given. Whether binding was seen depends on the method and setting. Binding seen in cells or lysates may run through a third protein. Some binding calls cover weakened binding; strength is not graded here. For some assays here: Tags and fused reporters may be left off the sequences shown.

The target in assay [1] is ubiquitin-specific peptidase 9 X-linked (USP9X), mouse, endogenous (mouse (endogenous in BMDMs and RAW264.7)) (UniProt P70398). Put plainly: co-IP; whole cell lysates of BMDMs immunoprecipitated with anti-USP9X or rabbit IgG antibody, Western blot; endogenous proteins.
Assay [2] addresses T1, class A1 scavenger receptor (SR-A1), mouse, endogenous (mouse (endogenous in BMDMs and RAW264.7)) (UniProt P30204).
T1 sequence: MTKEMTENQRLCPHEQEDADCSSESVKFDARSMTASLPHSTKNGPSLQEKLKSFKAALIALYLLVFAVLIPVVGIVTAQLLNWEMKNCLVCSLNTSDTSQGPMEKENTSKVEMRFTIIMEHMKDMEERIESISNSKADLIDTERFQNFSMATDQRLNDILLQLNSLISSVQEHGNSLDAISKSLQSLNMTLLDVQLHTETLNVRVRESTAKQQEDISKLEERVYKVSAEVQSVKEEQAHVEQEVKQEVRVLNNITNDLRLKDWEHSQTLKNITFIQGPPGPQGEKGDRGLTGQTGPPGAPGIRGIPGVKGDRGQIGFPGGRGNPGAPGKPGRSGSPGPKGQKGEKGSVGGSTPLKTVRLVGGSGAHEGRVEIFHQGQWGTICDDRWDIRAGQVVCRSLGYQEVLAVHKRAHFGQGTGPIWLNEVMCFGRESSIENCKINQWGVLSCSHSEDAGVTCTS
Briefly: co-IP; whole cell lysates of RAW264.7 cells immunoprecipitated with anti-USP9X/SR-A1 or rabbit/mouse IgG antibody, immunoblotted with anti-SR-A1 or USP9X antibody; endogenous proteins.

Assay [3] has as its target ubiquitin-specific peptidase 9 X-linked (USP9X), mouse, endogenous (mouse (endogenous in BMDMs and RAW264.7)) (UniProt P70398). Put plainly: co-IP; BMDMs treated with peptide-I (20 μM) for 24 hours; IP with antibody against USP9X or IgG.
Assay [4] has the same target. Put plainly: co-IP; BMDMs treated with control peptide (peptide-C, 20 μM) for 24 hours; IP with antibody against USP9X or IgG.
For assay [5] the target is unchanged. Put plainly: co-IP; whole cell lysates of RAW264.7 cells immunoprecipitated with anti-USP9X/SR-A1 or rabbit/mouse IgG antibody, immunoblotted with anti-SR-A1 or USP9X antibody; endogenous proteins.
Another assay deals with FLAG-USP9X (UniProt Q93008). Put plainly: co-IP; HeLa cells stably expressing doxycycline-induced FLAG-USP9X and cotransfected with MYC-SR-A1.
Assay [6] concerns the target ubiquitin-specific peptidase 9 X-linked (USP9X), human, endogenous (human (endogenous in HMDMs)) (UniProt Q93008). Put plainly: proximity ligation; in situ PLA with proximity probes against USP9X and SR-A1 in HMDMs; negative technical control omitting one of the primary antibodies.

Turning to “LOX-1, mouse, endogenous (from UniProt Q9EQ09 1-363) (receptor)”, the binding entry in assay [1] is recorded as “no binding”.

“ATP-binding cassette transporter A1 (ABCA1), mouse, endogenous (from UniProt P41233 1-2261)”: in assay [1], the binding result is listed as “no binding”.

Consider “ubiquitin-specific peptidase 9 X-linked (USP9X), mouse, endogenous (from UniProt P70398 1-2559) (enzyme)”, for which the binding result in assay [2] is on record as “binds”.

As for “CD36, mouse, endogenous (from UniProt Q08857 1-472) (receptor)”, the binding entry in assay [1] was “no binding”.

B1: SR-B1, mouse, endogenous (receptor, UniProt Q61009 1-509)
chain: MGGSSRARWVALGLGALGLLFAALGVVMILMVPSLIKQQVLKNVRIDPSSLSFGMWKEIPVPFYLSVYFFEVVNPNEVLNGQKPVVRERGPYVYREFRQKVNITFNDNDTVSFVENRSLHFQPDKSHGSESDYIVLPNILVLGGSILMESKPVSLKLMMTLALVTMGQRAFMNRTVGEILWGYDDPFVHFLNTYLPDMLPIKGKFGLFVGMNNSNSGVFTVFTGVQNFSRIHLVDKWNGLSKIDYWHSEQCNMINGTSGQMWAPFMTPESSLEFFSPEACRSMKLTYNESRVFEGIPTYRFTAPDTLFANGSVYPPNEGFCPCRESGIQNVSTCRFGAPLFLSHPHFYNADPVLSEAVLGLNPNPKEHSLFLDIHPVTGIPMNCSVKMQLSLYIKSVKGIGQTGKIEPVVLPLLWFEQSGAMGGKPLSTFYTQLVLMPQVLHYAQYVLLGLGGLLLLVPIICQLRSQEKCFLFWSGSKKGSQDKEAIQAYSESLMSPAAKGTVLQEAKL
Consider B1, for which the binding result in assay [1] was “no binding”.

B2: class A1 scavenger receptor (SR-A1), mouse, endogenous (receptor, UniProt P30204 1-458)
chain: T1 sequence
As for B2, the binding result in assay [1] is given as “binds”; in assay [3] it was “no binding (condition: with peptide-I (20 μM, 24 hours))”; in assay [4], “binds”; in assay [5], “binds”.

B3: MYC-SR-A1 (in HeLa cells) (receptor, UniProt P30204 1-458)
chain: T1 sequence
In the case of B3, in the assay with FLAG-USP9X, the binding result is given as “binds”.

B4: class A1 scavenger receptor (SR-A1), human, endogenous (receptor, UniProt P21757 1-451)
chain: MEQWDHFHNQQEDTDSCSESVKFDARSMTALLPPNPKNSPSLQEKLKSFKAALIALYLLVFAVLIPLIGIVAAQLLKWETKNCSVSSTNANDITQSLTGKGNDSEEEMRFQEVFMEHMSNMEKRIQHILDMEANLMDTEHFQNFSMTTDQRFNDILLQLSTLFSSVQGHGNAIDEISKSLISLNTTLLDLQLNIENLNGKIQENTFKQQEEISKLEERVYNVSAEIMAMKEEQVHLEQEIKGEVKVLNNITNDLRLKDWEHSQTLRNITLIQGPPGPPGEKGDRGPTGESGPRGFPGPIGPPGLKGDRGAIGFPGSRGLPGYAGRPGNSGPKGQKGEKGSGNTLTPFTKVRLVGGSGPHEGRVEILHSGQWGTICDDRWEVRVGQVVCRSLGYPGVQAVHKAAHFGQGTGPIWLNEVFCFGRESSIEECKIRQWGTRACSHSEDAGVTCTL
Consider B4, for which the binding result in assay [6] is on record as “binds”.
